Some of the results follow.

B1: chr4:128450444:128450445:-_ENSMUSG00000028799_ENSMUST00000106072|mus_mus|FALSE|FALSE (ssRNA)
RNA: GGGAGUUCUACAGUCCGACGAUCAGGCUGUUAACAGUAUUGGAACAGCAUAUUUACAGGGUAGUAACAUGCGGACAAAAGCUACAAUACGGAGUAUCAGACGACGCAAGUCAAACAAAGGGGUGGGGGUGGGGGGCUGAGACCCAACAGAGGAUUGAGCAUCA
B2: 122453384_122453504_3621_CDS_ENSMUSG00000034602_ENSMUST00000073792|mouse|control|control (ssRNA)
RNA: GGGAGUUCUACAGUCCGACGAUCCAGGGUCUGCCCUGCGCUCUUCCUCACGGCAGGGCGGGGGUCCACACAAAGCUCCCCCAGCUUGGCAUAGAGGCAGAGCCACAAGCAGUCGAACGGUGGCGCGGGGUGGAACGGCCGGUUCAACAGAGGAUUGAGCAUCA
B3: chr5:32761720:32761721:+_ENSMUSG00000014956_ENSMUST00000015100|mus_mus|FALSE|FALSE (ssRNA)
RNA: GGGAGUUCUACAGUCCGACGAUCAGGCUGUCCACGUUCAGCUCCCCGUCCGCCAUCUUGUCGGCACCAGACUCUCCUCCCUAAAGCGUUAACAGGGCUUCUCGGCGGCGGCGGCGGCUCGGCGUUCUCACCUACGAGUCACGCCAACAGAGGAUUGAGCAUCA
B4: chr3:176740097:176740098:-_ENSG00000177565_ENST00000430069|hu_mus|hu_hu_hu_mus_True|8_38 (ssRNA)
RNA: GGGAGUUCUACAGUCCGACGAUCUGUUUUGUAUACCACAAAAGGAGGCACUUUCAGUAUCUGCAAAAGGUGUUUAGUCCUAAAACAUACUCACCUAGAGAAUAAUUCAGGAAAACAAUCUGUUACACUAGUAUCUAUACUCCACAACAGAGGAUUGAGCAUCA
B5: chr2:86849987:86849988:-_ENSG00000239305_ENST00000237455|hu_hu|FALSE|FALSE (ssRNA)
RNA: GGGAGUUCUACAGUCCGACGAUCCACAAUGGCCUCAAAAAACCUGGCCAGGACGAACAGGACCAGGAAAUAGAGGAGCAAGAAAAAAAGCUUCAGCCACAUCUUCCCUGGAGUUUCCUCUCUUUCCAGAGAGCUCGGAAUACGCAACAGAGGAUUGAGCAUCA
B6: chr1:174017691:174017692:+_ENSMUSG00000026553_ENSMUST00000135192|mus_hu|FALSE|FALSE (ssRNA)
RNA: GGGAGUUCUACAGUCCGACGAUCAACUGGAUGACCCCAUUAUGUAAACUAGUCAGGAUCCAAGGUCUUUUGGGGUGAAAGCUGAGCCCUUUGACCCGCGCGCUCUUGGUCUCGAAUUUGGUUAACAUCUCUCAGGUCUCCGACCAACAGAGGAUUGAGCAUCA
B7: chr3:134197472:134197473:-_ENSG00000129055_ENST00000354910|hu_hu|motif|central (ssRNA)
RNA: GGGAGUUCUACAGUCCGACGAUCAGGAGCCAAGCGUCAGUUUCCAAUGGGGGGAACAUUCUCAUGGAGGUACUGUAAGGCGGAGUCUGUCCACUUCAUUUCUUGUUCUUUGACAGAUUCUGUGGUGCCACCAUUGUCUUGUUCCAACAGAGGAUUGAGCAUCA
B8: chr8:74527950:74527951:-_ENSG00000040341_ENST00000355780|hu_mus|FALSE|FALSE (ssRNA)
RNA: GGGAGUUCUACAGUCCGACGAUCUUCUUUAAUAACCUCAAAACUGACAGGCAUAUUUCUCUUCAGCGCAAUCUCAAACACUAAGCUUAUUUCAGAUUUAUUUGCAUCUUUAUCGUCAUCCAUUUCUUUUCCUGAUUCACCAUUCAACAGAGGAUUGAGCAUCA
B9: chr15:96521860:96521861:-_ENSMUSG00000022462_ENSMUST00000023099|mus_hu|FALSE|FALSE (ssRNA)
RNA: GGGAGUUCUACAGUCCGACGAUCGAAAUCUUUUGAUGCACACAACAAGUGAGUUACAGAACUCCGGAUUGGGAAAAUAACUACUGGUACUGUCAGGGUCACAGCCAUUAACACAGCCAGACGGACAAUGAGAAGAAGAAUAUCCAACAGAGGAUUGAGCAUCA
B10: chr1:163115795:163115796:-_ENSG00000143248_ENST00000313961|hu_hu|motif|central (ssRNA)
RNA: GGGAGUUCUACAGUCCGACGAUCGAGUUAAUAUCCUCAUCUCGAUUACCCUCAUACAUGGCUUAGUUUGAUUCUGUUACGGAAUUCUGUGAAUCAUUAUUUAAUCAAAUCUACUAAAGAUUAGAAAAAAUUCUAGCAAGACUUCAACAGAGGAUUGAGCAUCA
B11: chr12:39763582:39763583:-_ENSG00000139116_ENST00000544797|hu_mus|hu_hu_hu_mus_False|28_78 (ssRNA)
RNA: GGGAGUUCUACAGUCCGACGAUCCUCUAGGAACUGGGCAUUCACUUUGAAUUCAGGAGCAGGAAGCCCGUUUUUAAUCGCUGAGGUCUUUUUCUCAUCAAUACUCUUAAAAAGGUGUCUAACAGCACGAGAGAUGAUGCCCUGCAACAGAGGAUUGAGCAUCA
B12: chr2:24917620:24917621:+_ENSMUSG00000006476_ENSMUST00000102931|mus_hu|FALSE|FALSE (ssRNA)
RNA: GGGAGUUCUACAGUCCGACGAUCCAAGAAAUGCUGCUUCCCUUUGAAUUGUUUCGGGGGUGUAGAAAUUGCACUUAUUUCUAUGAACCCCAUGGAGGGAUGCCCACAGCUGAGCCUCCAGGCGAGGCAUGGCAGGUCAGUGCCCAACAGAGGAUUGAGCAUCA
B13: chr11:77336104:77336105:-_ENSG00000074201_ENST00000525064|hu_mus|hu_hu_hu_mus_False|88_108 (ssRNA)
RNA: GGGAGUUCUACAGUCCGACGAUCCUCGCACAUUGCAGUGAACAUCGCCUCCAACGCUGACUUAUCACUGGGCACAAAUCGAAAUUCAGAAAUGGGUUCAACAUCAUCAUUGUCUUCCUCAUCUUCAUCAGAGAGAGGUUCUUUCAACAGAGGAUUGAGCAUCA
B14: 21681212_21699163_576_CDS_ENSG00000092199_ENST00000553300|human|control|control (ssRNA)
RNA: GGGAGUUCUACAGUCCGACGAUCCGAGGGCACUACAGCCCGAGCAAUAGGAGGAGGAGGAGGUACACGUGCUGGGUAACUGUACAUCCUAUCAUAAUAGUCCCGUUGAAAGUCAUAGUCCAAGUCAAAAGAGGAGCCGUACAUCAACAGAGGAUUGAGCAUCA

The assay has as its target T1, UNK ZnF1-3 (human, UniProt Q9C0B0 31-174).
T1 sequence: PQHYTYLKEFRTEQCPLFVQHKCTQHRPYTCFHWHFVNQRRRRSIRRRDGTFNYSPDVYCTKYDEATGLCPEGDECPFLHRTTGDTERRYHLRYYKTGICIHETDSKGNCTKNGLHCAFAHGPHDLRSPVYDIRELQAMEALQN
Kind of assay: nsRBNS (natural sequence RNA bind-n-seq); RBNS binding buffer (assumed for nsRBNS): 25 mM Tris pH 7.5, 150 mM KCl, 3 mM MgCl2, 0.01% Triton X-100, 500 ug/ml BSA, 20 U/ml SUPERase-In, 4 C; UNK is unkempt and MSI1 is Musashi-1; names of the RNAs are library labels; protein concentration not given here; high values mean tight binding.
In the case of B1, the binding signal was 1.64 enrichment R.

The molecule B2 yielded a binding signal of 0.599 enrichment R.

As to B3, the binding signal turned out to be 0.754 enrichment R.

For the molecule B4, the binding signal stood at 0.662 enrichment R.

The molecule B5 displayed a binding signal of 1.36 enrichment R.

On to B6, for which the binding signal stood at 1.03 enrichment R.

On to B7, for which the binding signal worked out at 0.404 enrichment R.

B8 gave a binding signal of 0.806 enrichment R.

Take B9: the binding signal turned out to be 1.83 enrichment R.

Molecule B10 displayed a binding signal of 0.798 enrichment R.

B11 registered a binding signal of 1.5 enrichment R.

With B12, the binding signal came to 0.713 enrichment R.

Turning to B13, the binding signal worked out at 1.07 enrichment R.

Molecule B14 returned a binding signal of 2.03 enrichment R.

Values taken from PMC12136788.
